Laboratory results taken from article PMC10668032.
This is one part of the list. At the low end of the ranking, values are background and their order means little.

Each sequence was assayed against SIX1-Q177R homeodomain (UniProt Q15475) (assay: universal protein binding microarray). Conditions: Universal all-10-mer PBM (8x60K, AMADID 030236), 300 nM GST-tagged protein, Alexa Fluor 488 anti-GST; buffer, salt, pH and temperature not stated; high values mean tight binding; most listed sequences are background and not binding sites; double strand, one strand shown.

Sequence | binding signal [E-score]
CGGTAAAA | -0.0455
CCACTAAC | 0.115
CGCCCCTC | 0.142
CACTAGTC | 0.208
CGTGCATA | 0.0215
ACAGGTGC | 0.148
CCACTTTA | -0.0459
AAGTGACT | -0.0504
ATGGCAAA | -0.375
CGCTTATC | 0.053
GTGCCGTA | 0.00856
ATCGAGTC | 0.00664
ACCGGAAC | -0.0312
AGGCTATC | -0.162
GAGAAGAC | -0.114
AGCCTAGG | -0.175
GGAGATCA | -0.0528
TGAACTAA | -0.125
ACACGGGG | 0.452
GGATACGA | 0.0396
CTGTTGGC | -0.0882
CCTGATGA | -0.0166
ACAGCATC | -0.233
AACCGCAG | -0.0792
TAGAGGAA | -0.0773

Sequence | binding signal [E-score]
CATGTTGA | -0.0908
AAGGGCTG | -0.251
ATCCGGAC | -0.0656
CCTGCGGA | 0.108
ACGGCTGC | -0.0602
ATATAGGA | 0.0594
AGCAGTTC | -0.0476
AAACGTAG | 0.112
CACGTTGA | 0.129
GCGCCAGC | -0.13
AGGGGGGA | 0.1
TAGTCAAA | -0.208
CGGACGTC | -0.196
GCAAACTA | -0.0156
CGGGAGAC | -0.0591
GACCCGTC | 0.0402
ACTTCGGG | -0.0614
CGCGCACG | 0.0433
GGCCGGCA | -0.205
ATCCTCCG | 0.0276
ATTACTCG | 0.0258
ACCGTGTG | 0.259
TGAAAGCA | -0.0365
AGTGTACC | 0.414
GTAGCGAA | -0.121

Sequence | binding signal [E-score]
GAACGCGA | -0.0752
CCATACTA | 0.0396
CGGGAGGA | -0.176
ATACTGGA | -0.0122
AAGACGCC | 0.0808
CGGACCCG | 0.00687
ACAAACTG | -0.315
CGACTGAG | -0.073
CGTCGGGA | 0.0246
AGTTAGGC | -0.137
CCCCAATA | 0.153
TAAAGCCA | -0.319
ACCTTATC | 0.0502
CGTCTTCA | 0.0594
CTAAACCC | 0.0848
CCAATGAG | -0.0461
ATCCTGCG | -0.174
GTTCCGCA | 0.0899
CTGTTGAC | -0.0966
ACCAATCG | 0.0956
AACACGCA | 0.396
ATATACTC | 0.0205
AAGCCTGA | -0.267
AGCCTGCC | -0.081
AGCAATGG | -0.153

Sequence | binding signal [E-score]
CGACACTC | 0.437
CAACCGCC | 0.0311
TACACTAA | 0.381
ATTGTAAA | -0.235
ACCAAGGT | 0.0377
GTAATGAC | 0.00341
ATTTTTGA | 0.00326
AATAGCAT | -0.182
ACACTTAC | 0.378
GTGGTTTA | -0.0286
AGGGGCGG | 0.113
GGAACCAC | 0.0371
CTTCTGGC | -0.0493
TAACATCA | -0.0745
CGAAGGGA | 0.0617
GTCGACAA | -0.123
ACGTCTAT | 0.013
GTCACACA | 0.215
AATCAACT | -0.202
CCCGGCAA | 0.108
CCGGGGAC | -0.00758
AAACACCC | 0.45
ACTCTCGA | 0.125
ACAACTCT | -0.16
AACGCGGG | 0.144

Sequence | binding signal [E-score]
AGCACTGC | -0.0354
AACTGCCC | 0.00411
AATCGAGT | -0.068
TAAGGGCA | -0.0317
AAGCATGC | -0.139
CAGGGTTA | 0.0745
CCGCTAGG | -0.0497
GCCTTCCA | -0.187
AGCCACGC | -0.105
GTGCTTTA | -0.0324
ACTGCAAG | -0.00106
ACCCGTGC | 0.162
TAACGTCA | -0.217
CGATACGA | -0.0117
CTCAGGGC | -0.188
CCAGAGAA | -0.217
ACGGGTTA | 0.0558
AAATGCTG | 0.0353
TAGGTGCA | 0.117
AGAACAGA | -0.246
ATTAGGAG | 0.0704
CGGCAGGA | -0.137
AGTACAAA | -0.107
ACAGCGAA | -0.19
ACAAGGGT | 0.21

Sequence | binding signal [E-score]
CGCATCAG | 0.0874
CTAAGTAG | -0.00419
AGTCAGGG | -0.00696
AACGGCCG | -0.133
CAGATACA | 0.313
GGCTATCA | -0.288
CCCGAATA | 0.012
AGGCCTCC | -0.208
GGTGGGAC | 0.0648
TCCTTGAA | -0.0907
ACAATGCG | 0.0849
AGATGTGG | -0.0894
AGTTGGAT | 0.0461
ATTCCAGA | -0.0893
CACAACAC | 0.38
AACCCTTC | 0.0433
CCAGAATA | 0.041
GCTGCGAA | -0.153
AAGGAGGG | 0.0083
AGGAGTGC | 0.0976
GACGGATC | -0.138
GAAAATGC | -0.254
CCGGTTGC | -0.0158
GCACGGAA | -0.0728
TCTAACCA | -0.167

Sequence | binding signal [E-score]
TCGTACAA | -0.218
GCTATCGA | -0.15
ACCCCAAC | 0.237
AGTAACTC | 0.0488
CAAGTAGA | -0.0216
ACCGGTAT | 0.212
AGATAATA | -0.252
CGTAGTAC | -0.0308
AACAAGCA | -0.0901
CAAAGATG | -0.186
GAATATAA | -0.256
ACCCGCTA | 0.104
CTTGGACC | -0.101
GCCTTTCA | -0.258
ATTCAACC | -0.0906
ATATGGAC | 0.0835
ACCGCACT | 0.12
ACTTCCGG | 0.00831
CAGGATCC | 0.0583
GATGCATC | -0.161
GGCCAGGA | -0.205
CAGTTTGG | -0.0483
CGGAATTA | -0.032
TAACCCGA | 0.169
GATGTATA | 0.103

Sequence | binding signal [E-score]
AGCCTCGC | -0.116
AATAGAGG | -0.0116
GGTTCGAC | 0.116
TCGGCACA | 0.217
ACGGAAGC | -0.0735
AAAGCGTT | -0.187
CCTCTCCC | -0.0619
CTTGACAC | 0.429
ATCAACTG | -0.079
GCTAATGA | -0.151
ACTAAGAC | 0.111
CCCCTCTA | 0.251
AAATAAGC | -0.261
GATGAGAC | 0.117
AACAAGGC | -0.132
AAATTATG | -0.219
CTAGCCCA | -0.0749
CCGTTTTC | -0.0147
CTCGAGCA | 0.0105
CAGAAATC | -0.271
GGGTAGGA | 0.213
ACTGCCGG | -0.0774
ACCCCGGT | 0.298
AAGCATCA | -0.116
GGATGAGA | -0.0756

Sequence | binding signal [E-score]
GCATGACC | -0.0216
ACTGTGCA | 0.195
GTAATAAC | 0.0545
ACTACTGA | -0.106
ACAATGGC | -0.122
CGGCTGAG | -0.151
GAAGGGAC | 0.0983
GTCTGGAA | -0.0947
ACAGATAT | 0.0386
CCGTGGAC | -0.0853
TGACAGAA | -0.264
ATGCAGAC | -0.0867
TCAGTGCA | -0.0296
GACGCCCC | 0.182
AACGCTGC | 0.0197
ATCACGAC | 0.00187
GAGCCACA | -0.0195
CAACCAGA | -0.172
AAGCTTAG | -0.0191
AAACCGTT | 0.0154
ATCGTAAC | -0.0138
CAATGCCC | -0.0431
CCAGCAAC | -0.118
AGCAACAA | -0.145
CTCTTTTC | -0.0969

Sequence | binding signal [E-score]
CCCTAGCG | -0.187
ATCCGGCG | 0.0867
ACGATCCT | 0.181
AACTCTTG | -0.0461
CAAAATTA | 0.00404
ATGCGTTC | -0.0126
GCCTAGAC | -0.0861
ATCCTTTG | 0.0224
GCATAAAA | 0.00893
CTATCGAC | 0.0392
CCAAAGAA | -0.229
AAATGCAC | -0.0219
CCGCAGAC | 0.092
ATAGTTCG | -0.0169
AAGAATGA | -0.167
CTGATGCC | -0.0679
ACATTACT | -0.123
CATACTAC | 0.14
AGCCTGCA | -0.03
ACGGCCGT | 0.138
GGTACACA | 0.322
AGCTCATG | -0.141
CATGCCAA | -0.195
ACGGTCAT | -0.16
GCACGTCC | -0.061

Sequence | binding signal [E-score]
GAAATGGA | -0.112
GTTATATA | -0.0153
AAGCGCCT | 0.0104
AATTCGGA | 0.0775
ATTAAAAC | 0.158
AAAGGACA | 0.147
GTGGAATA | 0.0558
GGCGAGGA | 0.174
GAACGGGA | -0.185
CGGAGGTC | -0.126
ATGTACAT | -0.317
CCTCGGAC | 0.0457
CGGAGCGA | -0.315
ATGAGACA | 0.159
CAGTGCAC | 0.183
CTCTCGAC | 0.125
CCCTGGCG | 0.0314
AACCCGAG | 0.127
CACATCTC | -0.173
AGTCTGAA | -0.321
AAAGGCAG | -0.096
CGTTTCAC | -0.00579
CGCAACCA | 0.0884
CACCCTCC | 0.297
CCTATCTC | -0.0145

Sequence | binding signal [E-score]
AGTGCGAG | -0.12
AGCGTGTC | 0.393
AACTCTTC | -0.0831
AGTCGTAT | -0.0908
CCAGCTGC | -0.0249
CACATCTA | -0.0476
AGCAGTGC | -0.0593
ACAAGACC | -0.2
AATTAGCC | -0.128
AAAAGGAA | -0.218
AAGTAATA | -0.214
ATGTCCCC | -0.192
GCATTCAA | -0.067
ATAGGCGC | -0.161
GACGTAGA | -0.0861
CCAACTGG | 0.00876
GAGATACC | 0.225
AAAGCCTC | -0.286
GACCCTTA | 0.0827
AGTAGGAT | 0.0282
AGGAAACC | -0.122
CACAGTCG | -0.0545
GACCATCC | -0.0863
AGTAAGAG | -0.129
ACAGTCCC | -0.147

Sequence | binding signal [E-score]
ACCTCTCC | -0.0488
ACTAATTG | -0.0211
GTCAATCA | -0.0124
CCAAGTTC | -0.088
ATATTACG | -0.165
CCCCAATC | 0.136
CCATCAGG | -0.0544
AAGCGGAG | 0.102
ACGCGCTG | 0.0974
AAAGCGTG | 0.12
ACATACTG | -0.0361
GAGGATAC | 0.235
GTGCGTAA | 0.0718
AAGGATAC | 0.275
ATACACGC | 0.396
AAACTGCA | -0.149
AGTACTGC | -0.153
CAGAATAG | 0.0233
GTAGAATA | 0.148
CACGGGAC | 0.163
GAACGGCA | -0.252
AGTATTAG | -0.0696
CAAGTTAA | -0.124
AGGGAGAT | -0.149
AAGGCACC | 0.0565

Sequence | binding signal [E-score]
TGTGAGAA | -0.0108
AGCAAAGG | 0.0309
CCGATTAG | 0.0257
CCTCGTTA | 0.0546
CCCTGTCC | 0.152
GTTGTACA | 0.223
GGTGGGCA | 0.0958
CGTATCTC | 0.0589
ATGCTATG | -0.268
GGGCGACA | 0.156
CCGGGCCA | -0.0427
GATTAACC | -0.128
ACAGCTAT | -0.131
AAGAGGAG | -0.0714
CCATGGGC | 0.0355
ATTATGTG | -0.0345
CCCCGTTA | -0.00978
CCGCAGAA | -0.216
CGGATCCC | 0.235
